Measured values published in publication PMC4336329 (PLoS ONE, 2015).
Hit rate of the full screen: of about 310,000 compounds, about 14,000 (4.5%) showed an effect of 50% or more. Effects have a minus sign here. Some of the results follow.

These compounds were tested against human ether-à-go-go-related gene (hERG) potassium channel (human, UniProt Q12809) (assay: primary screen, population patch clamp on CHO cells stably expressing hERG).
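Further: peak tail current of the secondary pulse compared with the same well before compound.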

human ether-à-go-go-related gene (hERG) potassium channel, sequence (Q12809 whole entry, looked up): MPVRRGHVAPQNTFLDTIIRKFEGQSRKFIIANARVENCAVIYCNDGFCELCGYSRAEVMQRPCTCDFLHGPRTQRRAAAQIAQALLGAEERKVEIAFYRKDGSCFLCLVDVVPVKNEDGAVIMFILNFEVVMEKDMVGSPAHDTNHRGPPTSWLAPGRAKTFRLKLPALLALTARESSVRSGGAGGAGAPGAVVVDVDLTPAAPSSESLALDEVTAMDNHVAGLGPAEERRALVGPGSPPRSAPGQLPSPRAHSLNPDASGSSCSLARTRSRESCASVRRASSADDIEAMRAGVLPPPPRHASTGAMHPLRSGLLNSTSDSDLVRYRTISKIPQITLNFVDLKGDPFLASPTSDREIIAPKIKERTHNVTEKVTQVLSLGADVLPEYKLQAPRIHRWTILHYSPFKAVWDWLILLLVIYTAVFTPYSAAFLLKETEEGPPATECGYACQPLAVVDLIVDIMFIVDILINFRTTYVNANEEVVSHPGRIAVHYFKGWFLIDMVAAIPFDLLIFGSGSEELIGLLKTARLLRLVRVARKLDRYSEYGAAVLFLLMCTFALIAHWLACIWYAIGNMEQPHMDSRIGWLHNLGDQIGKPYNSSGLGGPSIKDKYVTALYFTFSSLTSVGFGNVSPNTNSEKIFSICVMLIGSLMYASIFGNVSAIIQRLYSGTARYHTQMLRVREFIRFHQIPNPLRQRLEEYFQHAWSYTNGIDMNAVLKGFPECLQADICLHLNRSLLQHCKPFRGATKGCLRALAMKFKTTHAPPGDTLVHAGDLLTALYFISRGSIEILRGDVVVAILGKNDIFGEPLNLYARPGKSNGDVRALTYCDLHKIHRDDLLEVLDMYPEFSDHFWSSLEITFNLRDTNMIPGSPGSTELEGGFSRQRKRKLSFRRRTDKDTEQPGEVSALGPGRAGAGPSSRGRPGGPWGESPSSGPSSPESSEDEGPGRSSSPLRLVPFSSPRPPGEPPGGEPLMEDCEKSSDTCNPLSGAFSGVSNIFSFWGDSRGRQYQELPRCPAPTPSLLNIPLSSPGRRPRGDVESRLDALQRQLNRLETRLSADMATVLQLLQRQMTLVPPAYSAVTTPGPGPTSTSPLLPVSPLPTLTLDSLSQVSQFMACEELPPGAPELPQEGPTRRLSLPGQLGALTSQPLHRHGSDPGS

SMILES | hERG current change (%, negative = inhibition) at 10uM
C=CCc1cccc(/C=N/c2ncn[nH]2)c1O | -8.25%
COc1ccc(S(=O)(=O)CC(=O)c2cc3cccc(C)c3oc2=O)cc1 | 5.51%
CC(=O)C1C(c2ccc(Br)cc2)C2C(C)=NN=C2CC1(C)O (stereo not drawn) | 7.87%
Cc1cccc(C)c1NC(=O)COC(=O)C1CC1 | 5.29%
NS(=O)(=O)c1ccc(Nc2ncccc2[N+](=O)[O-])cc1 | 9.69%
C=CCOc1ccc(/C=N/n2cncn2)cc1OC | 3.13%
CCOc1ccccc1OCC(=O)Nc1ccc(Cl)cc1C(=O)c1ccccc1 | 16.8%
O=C(O)c1nccnc1C(=O)Nc1ccc(Cl)cc1Cl | 27.5%
N#Cc1c(Cn2cncn2)nc(=O)n(-c2ccc(Cl)cc2)c1N | 27.6%
CC12CN3CC(C)(CN(C1)C3c1ccncc1)C2=O (stereo not drawn) | 13%
CCN1CCCC1CNS(=O)(=O)c1ccc(F)c(Cl)c1 (stereo not drawn) | 9.12%
O=C(c1ccco1)N1N=C(c2ccco2)CC1c1ccc(Cl)cc1Cl (stereo not drawn) | 11.9%
O=C(Cn1c(-c2ccc(Cl)cc2)noc1=O)N1CCN(c2ccccc2F)CC1 | -34.4%
Cc1ccc(S(=O)(=O)N(C)CC(=O)NC2CC(C)(C)NC(C)(C)C2)cc1 | 5.34%
O=C(O)c1cc(-c2ccc(Cl)c(Cl)c2)n(-c2ccccc2)n1 | 12.6%
Cc1ccc(NC(=O)CCS(=O)(=O)c2ccc(Br)cc2)nc1 | 25.9%
CCn1c(SCC(=O)Nc2ccc(N3CCOCC3)cc2)nnc1C1CC1 | 7.69%
Cc1csc(=O)n1CC(=O)Nc1nc2ccccc2s1 | -4.99%
CC(Oc1ccc(Br)cc1)C(=O)N1CCc2ccccc21 (stereo not drawn) | 9.22%

SMILES | hERG current change (%, negative = inhibition) at 10uM
CC(O)CNCCOc1ccccc1-c1ccccc1.O=C(O)C(=O)O (stereo not drawn) | 6.01%
O=C(O)CNC(=O)/C=C/c1c(Cl)cccc1Cl | -7.7%
COC(=O)C(N)Cc1ccc(OC)c([N+](=O)[O-])c1.Cl (stereo not drawn) | 3.86%
Cc1ccc(NC(=O)COC(=O)COc2cccc3c2OC(C)(C)C3)cc1S(=O)(=O)N1CCOCC1 | 4.41%
COc1ccc(C(=O)O/N=C(\N)c2ccccn2)c(OC)c1 | 9.32%
O=C(c1ccc2c(c1)N(Cc1ccccc1)C(=O)c1ccccc1S2)N1CCCC1 | -19.8%
O=C(NC1CCCCC1)N1CCC(c2nc3ccccc3[nH]2)CC1 | -10.7%
CCOC(=O)N1CCN(C(=O)CCn2c(=S)[nH]c3cc(OCC)c(OCC)cc3c2=O)CC1 | -7.21%
Cc1cc(NS(=O)(=O)c2ccccc2)cc(Cl)c1O | 3.18%
COCCN(Cc1ccco1)C(=O)C1CCCN(c2ncnc3c2nc2n3CCCCC2)C1 (stereo not drawn) | -14.3%
COc1ccccc1-c1nc(-c2ccc(C(=O)O)cc2)no1 | 14.5%
CCOc1ccc(Oc2ccc(-c3nnc(-c4ccccc4)o3)cc2[N+](=O)[O-])cc1 | 8.53%
CNC(=O)CC12CC3CC(CC(C3)C1)C2 | 2.22%
O=C(CCNC(=O)c1ccc(Cl)cc1)Nc1ccccc1Cl | 0.957%
Cc1cc(C)c(OCCN(C)Cc2ccccc2)c(Br)c1 | 11.6%
Cc1c(Br)c([N+](=O)[O-])nn1CC(=O)Nc1c(C)n(C)n(-c2ccccc2)c1=O | 13.3%
CCOc1cc(C(c2c(C)[nH][nH]c2=O)c2c(C)[nH][nH]c2=O)ccc1OC(=O)c1cccc([N+](=O)[O-])c1 | -4.87%
Cc1ccccc1-n1nc2c(c1NC(=O)c1ccc(S(=O)(=O)N(C)C)cc1)CSC2 | 12.9%
Cc1ccc(S(=O)(=O)N2CCN(C(=S)NCCc3ccccc3)CC2)cc1 | 7.16%

SMILES | hERG current change (%, negative = inhibition) at 10uM
O=C1CCCS(=O)(=O)c2ccccc21 | 23.8%
Cc1ccc(OCC(=O)N2CCN(C(=O)c3cccnc3)CC2)cc1 | -4.29%
COc1ccc(C(=O)N/C(=C\c2ccc3c(c2)OCO3)C(=O)Nc2cccc(C(=O)O)c2)cc1 | 30.2%
O=C(Nc1nccs1)c1cc(Cl)ccc1[N+](=O)[O-] | -9.55%
COc1ccc(N=C2NC(=O)C(CC(=O)NCCc3ccc(OC)c(OC)c3)S2)cc1 (stereo not drawn) | -1.99%
COc1ccc(-n2c(-c3ccco3)nc3ccccc3c2=O)cc1 | 1.5%
O=C(C1CCN(c2ncnc3c2sc2cccc(F)c23)CC1)N1CCOCC1 | -27.8%
O=C(COC(=O)C1CC1)NC(=O)c1ccccc1 | -10.4%
CCOC(=O)c1cc(C(=O)OCC)c(=O)[nH]c1N1CCCC1 | 4.19%
CC(C)n1c(Nc2ccccc2)nc2ccccc21 | -1.84%
CC1=CC(C)(C)N(C(=O)c2ccccc2)c2ccccc21 | -8.02%
Oc1ccc(/C=N/Nc2ccnc3cc(Cl)ccc23)c(O)c1O | 14.2%
O=C(Nc1ccccc1Oc1ccccc1)c1ccccc1F | -4.12%
Cc1ccc2nc(NC(=O)C3CC(=O)N(Cc4ccco4)C3)sc2c1 (stereo not drawn) | 16.1%
COc1cc2c(cc1NC(=O)CSc1nnnn1-c1ccccc1)oc1ccccc12 | 3.22%
O=C(N/N=C/c1cccc(O)c1)c1cc(-c2ccccc2)nc2ccccc12 | 11%
COc1ccc(OC)c(S(=O)(=O)N2CCC(c3nc4ccccc4[nH]3)CC2)c1 | -55.7%
Cc1ccc(NC(=O)C(C)OC(=O)/C=C/c2ccccc2)cc1 (stereo not drawn) | 23%
COc1ccc(N2CCN(C(=O)CN(Cc3ccccc3)S(C)(=O)=O)CC2)cc1 | -17.4%
